The other results are listed elsewhere or left out. The energies were worked out here from pooled read counts, against the library average; single values are noisy.
Molecular target: T1, Pho4 (S. cerevisiae) (UniProt P07270)
T1 sequence: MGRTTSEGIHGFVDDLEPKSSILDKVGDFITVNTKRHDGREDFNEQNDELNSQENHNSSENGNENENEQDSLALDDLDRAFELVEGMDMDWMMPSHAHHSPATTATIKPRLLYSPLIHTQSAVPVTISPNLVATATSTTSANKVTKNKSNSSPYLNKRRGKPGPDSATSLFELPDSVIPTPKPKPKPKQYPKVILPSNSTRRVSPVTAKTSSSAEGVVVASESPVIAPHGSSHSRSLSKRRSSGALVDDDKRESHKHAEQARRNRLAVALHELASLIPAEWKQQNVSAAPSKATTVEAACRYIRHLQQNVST
Assay: relative binding free energy (BET-seq); higher = weaker binding
Conditions: reference: library average

Sequence	relative binding free energy
AGGGACACGTGAGCGT	0.11 kcal/mol
CGTTGCACGTGTAAGA	0.19 kcal/mol
GCTGTCACGTGATGGG	0.26 kcal/mol
AGGGCCACGTGTGTTA	-0.06 kcal/mol
TTTGACACGTGGATAG	0.07 kcal/mol
GGGATCACGTGTTACG	0.2 kcal/mol
AGCTGCACGTGGTAAG	0.05 kcal/mol
AAATTCACGTGGTTAG	0.09 kcal/mol
TGATTCACGTGGAGCG	0.45 kcal/mol
TTAAGCACGTGGTGTT	-0.13 kcal/mol
TGGAGCACGTGTAGCG	-0.15 kcal/mol
AATTTCACGTGTGCTT	0.21 kcal/mol
AAATGCACGTGGGGCT	-0.13 kcal/mol
GGCGGCACGTGTTGGG	0.01 kcal/mol
GGAGCCACGTGATGGG	0.1 kcal/mol
ACTCGCACGTGTGTGG	-0.06 kcal/mol
ATTTGCACGTGGTTAT	-0.08 kcal/mol
GGTGCCACGTGGTGTT	-0.14 kcal/mol
TGTGGCACGTGGCCGT	-0.35 kcal/mol
GGTCGCACGTGATGAT	0.11 kcal/mol
TTGTGCACGTGGACTA	-0.07 kcal/mol
GCGTACACGTGGGTCT	-0.06 kcal/mol
TCTGTCACGTGCGGGT	0.08 kcal/mol
AGTGCCACGTGCTTGG	-0.17 kcal/mol
CGGCTCACGTGAGTGT	0.41 kcal/mol

Sequence	relative binding free energy
TTTTGCACGTGAACTG	0.2 kcal/mol
AGTCGCACGTGTGGGT	-0.01 kcal/mol
GTTGTCACGTGGCTGT	0.06 kcal/mol
TAGGGCACGTGTGCGT	-0.01 kcal/mol
CGCTGCACGTGTGGTT	0.03 kcal/mol
TTATTCACGTGGGAGG	0.14 kcal/mol
GGTCTCACGTGTTGCT	0.34 kcal/mol
ATAGTCACGTGTTCGG	0.02 kcal/mol
GATATCACGTGTTGGG	0.3 kcal/mol
AGTCACACGTGATGTG	0.13 kcal/mol
CTTGTCACGTGTACTT	0.2 kcal/mol
GGGTTCACGTGTCTGT	0.35 kcal/mol
TTGGGCACGTGTAAGC	0.03 kcal/mol
GGGGGCACGTGGCGAA	-0.21 kcal/mol
AGCGACACGTGGGGTA	-0.07 kcal/mol
AGATTCACGTGGGGTG	0.19 kcal/mol
TTACGCACGTGTAATT	0.12 kcal/mol
TTTCACACGTGTGGTG	0.07 kcal/mol
AGTTTCACGTGATGCG	0.36 kcal/mol
GGTCGCACGTGTAGTT	0.09 kcal/mol
TACAGCACGTGGAGTG	-0.06 kcal/mol
CTTGGCACGTGCGAGG	-0.17 kcal/mol
TTAGTCACGTGGCGTA	-0.07 kcal/mol
TATGGCACGTGCCTGT	-0.21 kcal/mol
TATGCCACGTGCTTTT	0.01 kcal/mol

Sequence	relative binding free energy
GTGATCACGTGTAAAG	0.23 kcal/mol
AGTAACACGTGGGTAA	-0.09 kcal/mol
TTGAGCACGTGGATTT	0.04 kcal/mol
ATATACACGTGTGGGT	0.04 kcal/mol
TTATACACGTGCATTT	0.08 kcal/mol
GAGGTCACGTGTGGTG	0.17 kcal/mol
GAGTGCACGTGGGTAT	-0.2 kcal/mol
TGTGTCACGTGAGCGA	0.31 kcal/mol
TTTAACACGTGTATGT	-0.05 kcal/mol
TTGTTCACGTGATGCG	0.33 kcal/mol
CCGGTCACGTGGGGCT	-0.06 kcal/mol
GCAGTCACGTGGTGGG	0.03 kcal/mol
GTTAGCACGTGATCGA	0.12 kcal/mol
TGTCGCACGTGTTCGG	0.06 kcal/mol
TCTGTCACGTGCTTTT	0.18 kcal/mol
TCTTGCACGTGTTGTC	-0.02 kcal/mol
TGATCCACGTGAGGGG	0.14 kcal/mol
ACTTGCACGTGTGATG	0.14 kcal/mol
TGCATCACGTGTAGCT	0.26 kcal/mol
ATCGTCACGTGCTGTT	-0.01 kcal/mol
GCATTCACGTGTAGGT	0.16 kcal/mol
GCTAACACGTGTTGTT	0.09 kcal/mol
CGACTCACGTGTGGTG	0.13 kcal/mol
CGTGCCACGTGTTGTT	-0.14 kcal/mol
TGATGCACGTGTACGA	0 kcal/mol

Sequence	relative binding free energy
TAGTGCACGTGAGGAT	0.14 kcal/mol
GTAGTCACGTGGCTCG	0.07 kcal/mol
ACGGTCACGTGGGGCT	-0.04 kcal/mol
GATGTCACGTGCAAGT	0.18 kcal/mol
TTTGGCACGTGCGAGA	-0.1 kcal/mol
TAGGACACGTGTTGGA	0.18 kcal/mol
ATGTGCACGTGCTAGA	-0.14 kcal/mol
GAGTTCACGTGTGTCA	0.29 kcal/mol
CGGAGCACGTGGTGTT	-0.3 kcal/mol
TGTGTCACGTGGGGAA	-0.06 kcal/mol
ATGATCACGTGATGGA	0.1 kcal/mol
TGAGGCACGTGAAAAT	0.23 kcal/mol
AGGGTCACGTGAGTCG	0.24 kcal/mol
CGGATCACGTGGGGTT	-0.05 kcal/mol
ACGTGCACGTGGAGCG	-0.07 kcal/mol
TGCTGCACGTGGGAGA	-0.12 kcal/mol
TGGGGCACGTGACAGT	0 kcal/mol
ATGTACACGTGGTTTC	0.06 kcal/mol
GGAGTCACGTGGGAGC	0.1 kcal/mol
ACTAGCACGTGTTCGG	0.13 kcal/mol
GAAGTCACGTGATTGA	0.32 kcal/mol
GGAAGCACGTGAAGGA	0.19 kcal/mol
TTTCGCACGTGGGGTT	-0.13 kcal/mol
AGGGGCACGTGGTAGA	-0.18 kcal/mol
CTAATCACGTGGGGGG	0.03 kcal/mol

Sequence	relative binding free energy
GGTATCACGTGAAATG	0.36 kcal/mol
TGTCTCACGTGGAAAG	0.38 kcal/mol
ATAGACACGTGTTTGC	0.1 kcal/mol
AATTTCACGTGATACG	0.42 kcal/mol
CGTTACACGTGATTGG	0.15 kcal/mol
GAGAGCACGTGGAGGG	-0.16 kcal/mol
GGGCACACGTGGGGCG	-0.06 kcal/mol
TTGGTCACGTGCCGTA	0.02 kcal/mol
TGTGCCACGTGTGTTA	-0.1 kcal/mol
ATGGACACGTGGGATT	0.1 kcal/mol
TTGTTCACGTGTTTTA	0.38 kcal/mol
CTGGGCACGTGTCGGA	-0.15 kcal/mol
GTCGACACGTGTGGTT	0.12 kcal/mol
AAAGTCACGTGTTGCG	0.09 kcal/mol
TGGGTCACGTGTGGCT	0.09 kcal/mol
ACGTTCACGTGAGGTA	0.23 kcal/mol
AAATTCACGTGGGATA	0.33 kcal/mol
ATCGGCACGTGGAGAG	-0.15 kcal/mol
TGGGTCACGTGAGCGG	0.29 kcal/mol
GTCGTCACGTGATTGG	0.32 kcal/mol
CTTCTCACGTGTGTTT	0.17 kcal/mol
GTACTCACGTGAGTGG	0.23 kcal/mol
TTTGTCACGTGGTAGA	0.13 kcal/mol
AGGACCACGTGATGGG	0.01 kcal/mol
TAACTCACGTGTAGGG	0.15 kcal/mol

Sequence	relative binding free energy
TTCCTCACGTGTTGGT	0.24 kcal/mol
AATGTCACGTGCGTGG	-0.06 kcal/mol
TGGAACACGTGGTTTA	-0.12 kcal/mol
CGTGACACGTGGCGGT	-0.25 kcal/mol
ATTGTCACGTGAGCAT	0.11 kcal/mol
GCGGGCACGTGGTGAA	-0.1 kcal/mol
GTCGGCACGTGTGCTA	0.15 kcal/mol
GGCTGCACGTGTAGCG	0.05 kcal/mol
GTAATCACGTGACGTG	0.3 kcal/mol
GTCGCCACGTGTATGG	0.05 kcal/mol
TTTTACACGTGCTTGG	0.1 kcal/mol
GGCTCCACGTGTGTGT	0.01 kcal/mol
TTAATCACGTGGTTAG	0.22 kcal/mol
ACAATCACGTGGGATT	0.14 kcal/mol
ATAGTCACGTGGGCAG	-0.18 kcal/mol
ATTGTCACGTGTAGGA	-0.01 kcal/mol
GTGTCCACGTGGTTCA	0.12 kcal/mol
TGCGCCACGTGGGGCT	-0.24 kcal/mol
TGTTTCACGTGTTCGC	0.35 kcal/mol
AGCGGCACGTGGATTG	-0.05 kcal/mol
TGGTACACGTGGGTAG	-0.07 kcal/mol
